Results published in PubChem BioAssay AID360 (National Center for Advancing Translational Sciences (NCATS), 2006).
About 550 (1.1%) of roughly 48,000 compounds were called active. Another 4% or so got no clear call; they are omitted. No stated cut-off is given here; in the data, active means potency below about 15 µM; inconclusive means mostly about 16 µM to 33 µM; inactive means weaker than that. The list shows a part of the results.

Molecular target: Lysosomal acid glucosylceramidase (Homo sapiens) (UniProt P04062)
Chain of UniProt P04062 (P04062 whole entry, looked up): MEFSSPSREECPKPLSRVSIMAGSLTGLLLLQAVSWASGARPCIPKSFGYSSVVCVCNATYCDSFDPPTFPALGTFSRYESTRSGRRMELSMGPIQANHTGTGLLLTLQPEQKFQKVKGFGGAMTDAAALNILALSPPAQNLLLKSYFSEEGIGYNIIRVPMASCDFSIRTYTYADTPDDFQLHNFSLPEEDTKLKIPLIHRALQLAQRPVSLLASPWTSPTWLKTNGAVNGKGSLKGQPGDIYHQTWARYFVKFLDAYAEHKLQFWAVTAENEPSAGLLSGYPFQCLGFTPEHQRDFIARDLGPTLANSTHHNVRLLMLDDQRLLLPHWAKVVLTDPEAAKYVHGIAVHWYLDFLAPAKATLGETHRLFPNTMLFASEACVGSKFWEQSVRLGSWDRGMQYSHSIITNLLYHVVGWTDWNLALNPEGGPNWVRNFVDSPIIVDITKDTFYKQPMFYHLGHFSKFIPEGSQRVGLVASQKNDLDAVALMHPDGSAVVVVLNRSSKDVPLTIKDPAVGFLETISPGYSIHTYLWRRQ
Assay: Glucocerebrosidase;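 further: the screen sought inhibitors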
Conditions: purified enzyme, resorufin glucoside fluorescence (screen aimed at inhibitors), 20 min
Method in brief: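 Compounds titrated against 0.2 nM normal enzyme, 30 uM resorufin beta-D-glucopyranoside substrate, citrate/phosphate buffer with taurocholate and tween-20, pH 5.9. Reaction ran 20 min at room temperature; fluorescence (Ex 548/Em 600) gave AC50.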
Potency means the concentration at half of the fitted maximal effect.

Potency, inactive:
O=C(NCCN1CCCCCC1)C1CCN(S(=O)(=O)N2CCOCC2)CC1 > 76.9 µM
NC(=O)NCC12CC3CC(CC(C3)C1)C2 > 76.9 µM
COCCCn1c(SCC(=O)Nc2ccc(C(C)=O)cc2)nc2ccccc2c1=O > 76.9 µM
CCOC(=O)c1ccc(NC(=O)N2CCc3ccccc32)cc1 > 76.9 µM
COc1ccc(C2C(C(C)=O)=C(C)N=c3s/c(=C/c4ccc5c(c4)OCO5)c(=O)n32)cc1 (stereo unspecified) > 76.9 µM
CC(C)(C)n1ncc2c(=O)n(CC(=O)c3ccc(Cl)cc3)cnc21 > 76.9 µM
c1ccc(Sc2ncnc3c2oc2ccccc23)nc1 > 76.9 µM
CCOc1ccc(C(=O)Nc2cccc(-c3nc4cccnc4o3)c2)cc1Cl > 76.9 µM
COc1cccc2cc(C(=O)C3=C(O)C(=O)N(CCN4CCOCC4)C3c3cccs3)oc12 (stereo unspecified) > 76.9 µM
Cc1csc(NC(=O)CCS(=O)(=O)c2ccc(Br)cc2)n1 > 76.9 µM
O=C(NCc1ccco1)c1ccc(COCC(F)(F)F)cc1 > 76.9 µM
O/N=C(\COc1ccccc1O)c1ccccc1 > 76.9 µM
O=S(=O)(NCCc1csc(-c2ccccc2)n1)c1ccc2c(c1)OCCO2 > 76.9 µM
O=C1c2cccnc2C(=O)N1Cc1ccco1 > 76.9 µM
COc1ccc(C(=O)NC(=O)Nc2cc(C)ccn2)cc1 > 76.9 µM
CCc1nnc(NC(=O)CSc2nc3c(c(=O)n2-c2ccccc2OC)SCC3)s1 > 76.9 µM
COc1ccccc1N1CC(C(=O)OCC(=O)c2ccc(F)cc2)CC1=O (stereo unspecified) > 76.9 µM
O=c1c(-c2ccccc2)n[nH]c2ccccc12 > 76.9 µM
O=C(OCC(=O)N1CCN(c2ccccc2)CC1)C1=COCCO1 > 76.9 µM
CCOC(=O)C1C(=O)CC(C)(O)C(C(=O)OCC)C1c1cccc(OC(F)(F)C(F)F)c1 (stereo unspecified) > 76.9 µM
Cc1ccc(NC(=O)C2CCCN(S(=O)(=O)c3c(C)noc3C)C2)nc1 (stereo unspecified) > 76.9 µM
O=C(NCCC(=O)N1CCNC1=O)OCc1ccccc1 > 76.9 µM
O=C(c1ccccc1OCc1ccccc1Br)N1CCN(c2ncccn2)CC1 > 76.9 µM
Cc1cc(C)c2c(N)c(C(=O)N3CCN(c4ncccn4)CC3)sc2n1 > 76.9 µM
O=C(NCc1ccncc1)Nc1ccc(F)cc1 > 76.9 µM
O=C(O)CC(c1ccccc1)n1cccc1 (stereo unspecified) > 76.9 µM
Cn1c(=O)cc(OCCCC(=O)NC2CCCC2)c2ccccc21 > 76.9 µM
COc1ccc(CNC(=O)C(c2cccs2)N(C(=O)c2csnn2)C2CC2)cc1 (stereo unspecified) > 76.9 µM
O=C(O)CSc1nnc(Cc2ccccc2)n1Cc1ccccc1 > 76.9 µM
CSc1ccccc1-n1nnnc1SCc1ccccc1 > 76.9 µM
CCC(NC(=O)OC(C)(C)C)C(=O)Oc1ccc2c3c(c(=O)oc2c1)CCC3 (stereo unspecified) > 76.9 µM
CCSc1nc(N2CCOCC2)c2ccccc2n1 > 76.9 µM
COc1ccc2cc(C(=O)OC(C)C)sc(=O)c2c1OC > 76.9 µM
CCc1nc(SCC(=O)N2CCc3ccccc32)c2oc3ccccc3c2n1 > 76.9 µM
O=C(O)CCCCCNCc1ccncc1 > 76.9 µM
O=C(Nc1cccnc1)c1cccc(S(=O)(=O)N2CCOCC2)c1 > 76.9 µM
N#Cc1cc2sc3nnc(-c4ccncc4)n3c2cc1C#N > 76.9 µM
CCN(Cc1cc2cccc(C)c2[nH]c1=O)C(=O)c1ccccc1OC > 76.9 µM
Cc1ccc2nc(-c3cccc(-c4nc5ccc(C)cc5o4)n3)oc2c1 > 76.9 µM
CN1CCN(C(=O)c2c(O)c3cccc4c3n(c2=O)CC4)CC1 > 76.9 µM
CCOC(=O)Cc1nnc2c(Nc3ccc(Cl)cc3)nc3nonc3n12 > 76.9 µM
CCCn1c(SCC(=O)c2cc(OC)ccc2OC)nnc1C(C)C > 76.9 µM
O=C1C2C3CCCC3=C3CCCC3C2C(=O)N1c1ccc(Cl)cc1 (stereo unspecified) > 76.9 µM
COCCSc1ccccc1C(=O)Nc1ccncc1 > 76.9 µM
O=C(NC1CCCC1)c1sc(=S)n2c1[nH]c(=O)c1ccccc12 > 76.9 µM
Cc1ccsc1C=Nc1c(C)n(C)n(-c2ccccc2)c1=O > 76.9 µM
